According to the supplement of paper PMC9151546:
Many values rest on one well or one pass, so single values are uncertain.

Legend:
CHO-K1 [1] = experiment: relative survival (nuclei to bead ratio vs DMSO control) (% of vehicle control); higher = more surviving cells
Procedure: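 Flow-cytometric in vitro micronucleus assay (Litron MicroFlow) in CHO-K1 cells in 96-well plates, 19 concentrations (4.5-200 µM, n=1 per concentration). Without S9, cells were exposed for 24 h and sampled at 48 h. With Aroclor 1254-induced rat liver S9, cells were exposed for 3-4 h and sampled at 27-28 h. Read-outs are %MN and %hypodiploid nuclei relative to nucleated events, and relative survival as the nuclei-to-bead ratio versus the 1% DMSO vehicle control (x100).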

CHO-K1 [2] = experiment: micronucleus frequency (% of nucleated events); higher = more micronuclei (genotoxic)
CHO-K1 [3] = experiment: hypodiploid nuclei frequency (% of nucleated events); higher = more hypodiploid events (aneugenic)
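Wherever hypodiploid nuclei frequency (% of nucleated events) is given: hypodiploid nuclei gated on a flow cytometer with 488 nm excitation after SYTOX Green staining, cultures at 37 °C, positive controls vinblastine without S9 and cyclophosphamide with S9.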
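Wherever micronucleus frequency (% of nucleated events) is given: cells lysed with nuclei stained by SYTOX Green, then micronucleus-gated events counted against nucleated events by flow cytometry with 488 nm excitation.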
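Wherever relative survival (nuclei to bead ratio vs DMSO control) is given: Lysed-cell nuclei stained with SYTOX Green and counted against counting beads by flow cytometry at 488 nm excitation, with vinblastine (no S9) and cyclophosphamide (plus S9) as positive controls.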

COc1ccc([N+](=O)[O-])cc1N [2-Methoxy-5-nitroaniline]
Settings	hypodiploid nuclei frequency, CHO-K1 [3] [%]	micronucleus frequency, CHO-K1 [2] [%]	relative survival, CHO-K1 [1]
concentration: 4.5 (µM), S9 metabolic activation: with S9, exposure time: 3-4 hours	0.2	0.82	132
concentration: 4.5 (µM), S9 metabolic activation: without S9, exposure time: 24 hours	1.44	1.92	106
concentration: 5.63 (µM), S9 metabolic activation: with S9, exposure time: 3-4 hours	0.22	0.96	121
concentration: 5.63 (µM), S9 metabolic activation: without S9, exposure time: 24 hours	0.62	1.34	99
concentration: 7.04 (µM), S9 metabolic activation: with S9, exposure time: 3-4 hours	0.22	0.96	126
concentration: 7.04 (µM), S9 metabolic activation: without S9, exposure time: 24 hours	1.08	2.28	123
concentration: 8.8 (µM), S9 metabolic activation: with S9, exposure time: 3-4 hours	0.24	1.06	119
concentration: 8.8 (µM), S9 metabolic activation: without S9, exposure time: 24 hours	0.96	1.44	120
concentration: 11 (µM), S9 metabolic activation: with S9, exposure time: 3-4 hours	0.2	1.06	97.9
concentration: 11 (µM), S9 metabolic activation: without S9, exposure time: 24 hours	0.96	1.74	116
concentration: 13.7 (µM), S9 metabolic activation: with S9, exposure time: 3-4 hours	0.12	0.98	135
concentration: 13.7 (µM), S9 metabolic activation: without S9, exposure time: 24 hours	0.8	1.04	108
concentration: 17.2 (µM), S9 metabolic activation: with S9, exposure time: 3-4 hours	0.18	0.94	125
concentration: 17.2 (µM), S9 metabolic activation: without S9, exposure time: 24 hours	1.14	1.22	121
concentration: 21.5 (µM), S9 metabolic activation: with S9, exposure time: 3-4 hours	0.42	1.1	120
concentration: 21.5 (µM), S9 metabolic activation: without S9, exposure time: 24 hours	1.06	1.78	107
concentration: 26.8 (µM), S9 metabolic activation: with S9, exposure time: 3-4 hours	0.3	1.46	133
concentration: 26.8 (µM), S9 metabolic activation: without S9, exposure time: 24 hours	0.8	1.7	109
concentration: 33.6 (µM), S9 metabolic activation: with S9, exposure time: 3-4 hours	0.2	0.92	110
concentration: 33.6 (µM), S9 metabolic activation: without S9, exposure time: 24 hours	0.88	1.72	99.7
concentration: 41.9 (µM), S9 metabolic activation: with S9, exposure time: 3-4 hours	0.28	0.82	120
concentration: 41.9 (µM), S9 metabolic activation: without S9, exposure time: 24 hours	1.22	1.92	104
concentration: 52.4 (µM), S9 metabolic activation: with S9, exposure time: 3-4 hours	0.36	1.06	106
concentration: 52.4 (µM), S9 metabolic activation: without S9, exposure time: 24 hours	0.76	1.84	102
concentration: 65.5 (µM), S9 metabolic activation: with S9, exposure time: 3-4 hours	0.22	1.1	88.4
concentration: 65.5 (µM), S9 metabolic activation: without S9, exposure time: 24 hours	1.16	1.5	102
concentration: 81.9 (µM), S9 metabolic activation: with S9, exposure time: 3-4 hours	0.2	1.2	109
concentration: 81.9 (µM), S9 metabolic activation: without S9, exposure time: 24 hours	1.58	1.68	98.6
concentration: 102 (µM), S9 metabolic activation: with S9, exposure time: 3-4 hours	0.24	0.9	124
concentration: 102 (µM), S9 metabolic activation: without S9, exposure time: 24 hours	1.46	1.46	82.6
concentration: 128 (µM), S9 metabolic activation: with S9, exposure time: 3-4 hours	0.18	1.06	118
concentration: 128 (µM), S9 metabolic activation: without S9, exposure time: 24 hours	1.92	1.38	88.7
concentration: 160 (µM), S9 metabolic activation: with S9, exposure time: 3-4 hours	0.2	1.06	101
concentration: 160 (µM), S9 metabolic activation: without S9, exposure time: 24 hours	2.26	1.4	88.2
concentration: 200 (µM), S9 metabolic activation: with S9, exposure time: 3-4 hours	0.14	0.99	80.8
concentration: 200 (µM), S9 metabolic activation: without S9, exposure time: 24 hours	1.9	2.08	77.4
